In the supplement of paper PMC8728848:
Some of the results follow.

Tests used:
Test in all cases: glycan array binding signal (z-score within array); higher = stronger binding
Settings in all cases: glycan notation: IUPAC condensed, linker removed
[1] = biological target: Fuc(a1-2)[Gal(a1-3)]Gal(b1-4)GlcNAc(b1-2)Man(a1-3)[Fuc(a1-2)[Gal(a1-3)]Gal(b1-4)GlcNAc(b1-2)Man(a1-6)]Man(b1-4)GlcNAc(b1-4)GlcNAc
How it was run: (§1)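 Columns mapping to the same glycan were averaged after glycan names were converted to IUPAC-condensed notation. The data come from 3228 arrays in the Consortium for Functional Glycomics database, limited to those with an available protein sequence. Binding is reported as a within-array Z-score averaged across arrays of one protein sequence and across linkers.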

[2] = biological target: Fuc(a1-2)[Gal(a1-3)]Gal(b1-4)[Fuc(a1-3)]GlcNAc
How it was run: as §1

[3] = biological target: Fuc(a1-2)[Gal(a1-4)]Gal(b1-4)GlcNAc
How it was run: as §1

[4] = biological target: Fuc(a1-2)[GalNAc(a1-3)]Gal
How it was run: as §1

[5] = biological target: Fuc(a1-2)[GalNAc(a1-3)]Gal(b1-3)GlcNAc
How it was run: as §1

[6] = biological target: Fuc(a1-2)[GalNAc(a1-3)]Gal(b1-3)GlcNAc(b1-2)Man(a1-3)[Fuc(a1-2)[GalNAc(a1-3)]Gal(b1-3)GlcNAc(b1-2)Man(a1-6)]Man(b1-4)GlcNAc(b1-4)GlcNAc
How it was run: as §1

[7] = biological target: Fuc(a1-2)[GalNAc(a1-3)]Gal(b1-4)Glc
How it was run: as §1

[8] = biological target: Fuc(a1-2)[GalNAc(a1-3)]Gal(b1-4)GlcNAc
How it was run: as §1

[9] = biological target: Fuc(a1-2)[GalNAc(a1-3)]Gal(b1-4)GlcNAc(b1-2)Man(a1-3)[GalNAc(a1-3)[Fuc(a1-2)]Gal(b1-4)GlcNAc(b1-2)Man(a1-6)]Man(b1-4)GlcNAc(b1-4)GlcNAc
How it was run: as §1

[10] = biological target: Fuc(a1-2)[GalNAc(a1-3)]Gal(b1-4)GlcNAc(b1-3)Gal(b1-4)GlcNAc
How it was run: as §1

[11] = biological target: Fuc(a1-2)[GalNAc(a1-3)]Gal(b1-4)GlcNAc(b1-3)Gal(b1-4)GlcNAc(b1-3)Gal(b1-4)GlcNAc
How it was run: as §1

[12] = biological target: Fuc(a1-2)[GalNAc(a1-3)]Gal(b1-4)[Fuc(a1-3)]GlcNAc
How it was run: as §1

[13] = biological target: Fuc(a1-2)[GalNAc(a1-4)]Gal(b1-4)GlcNAc
How it was run: as §1

[14] = biological target: Fuc(a1-2)[GalNAc(b1-3)]Gal
How it was run: as §1

Fuc(a1-3)GlcNAc = biological target: Fuc(a1-3)GlcNAc
How it was run: as §1

[15] = biological target: Fuc(a1-3)[Gal(b1-4)]Glc6S
How it was run: as §1

[16] = biological target: Fuc(a1-3)[Gal(b1-4)]GlcNAc
How it was run: as §1

[17] = biological target: Fuc(a1-3)[Gal(b1-4)]GlcNAc(b1-2)Man(a1-3)[Fuc(a1-3)[Gal(b1-4)]GlcNAc(b1-2)Man(a1-6)]Man(b1-4)GlcNAc(b1-4)GlcNAc
How it was run: as §1

[18] = biological target: Fuc(a1-3)[Gal(b1-4)]GlcNAc(b1-2)Man(a1-6)[Gal(b1-4)GlcNAc(b1-2)Man(a1-3)]Man(b1-4)GlcNAc(b1-4)GlcNAc
How it was run: as §1

[19] = biological target: Fuc(a1-3)[Gal(b1-4)]GlcNAc(b1-3)Gal(b1-3)[Fuc(a1-4)]GlcNAc
How it was run: as §1

[20] = biological target: Fuc(a1-3)[Gal(b1-4)]GlcNAc(b1-4)Gal(b1-4)[Fuc(a1-3)]GlcNAc
How it was run: as §1

[21] = biological target: Fuc(a1-3)[Gal(b1-4)]GlcNAc(b1-4)Gal(b1-4)[Fuc(a1-3)]GlcNAc(b1-4)Gal(b1-4)[Fuc(a1-3)]GlcNAc
How it was run: as §1

[22] = biological target: Fuc(a1-3)[Gal(b1-4)]GlcNAc6S
How it was run: as §1

[23] = biological target: Fuc(a1-3)[Gal3S(b1-4)]Glc6S
How it was run: as §1

[24] = biological target: Fuc(a1-3)[Gal3S(b1-4)]GlcNAc
How it was run: as §1

[25] = biological target: Fuc(a1-3)[Gal3S(b1-4)]GlcNAc6S
How it was run: as §1

[26] = biological target: Fuc(a1-3)[GalNAc(b1-4)]GlcNAc
How it was run: as §1

[27] = biological target: Fuc(a1-3)[Neu5Ac(a2-3)]Gal(b1-4)GlcNAc(b1-3)GalNAc
How it was run: as §1

Fuc(a1-4)GlcNAc = biological target: Fuc(a1-4)GlcNAc
How it was run: as §1

Fuc(b1-3)GlcNAc = biological target: Fuc(b1-3)GlcNAc
How it was run: as §1

B1: Eap (Staphylococcus aureus), A0A7L5PYT7 (protein)
chain: MKFKSLITTTLALGVLASTGANFNNNEAAAAAKPLDKSSSSLHHGYSKVHVPYAITVNGTSQNILSSLTFNKNQNISYKDLEDRVKSVLKSDRGISDIDLRLSKQAKYTVYFKNGTKKVIDLKAGIYTADLINTSEIKAININVDTKKQVEDKKKDKANYQVPYTITVNGTSQNILSNLTFNKNQNISYKDLEDKVKSVLESNRGITDVDLRLSKQAKYTVNFKNGTKKVIDLKSGIYTANLINSSDIKSININVDTKKHIENKAKRNYQVPYSINLNGTSTNILSNLSFSNKPWTNYKNLTSQIKSVLKHDRGISEQDLKYAKKAYYTVYFKNGGKRILQLNSKNYTANLVHAKDVKRIEITVKTGTKAKADRYVPYTIAVNGTSTPILSDLKFTGDPRVGYKDISKKVKSVLKHDRGIGERELKYAKKATYTVHFKNGTKKVININSNISQLNLLYVQDIKKIDIDVKTGTKAKADSYVPYTIAVNGTSTPILSKLKISNKQLISYKYLNDKVKSVLKSERGISDLDLKFAKQAKYTVYFKNGKKQVVNLKSDIFTPNLFSAKDIKKIDIDVKQYTKSKKNK
With B1 the “glycan array binding signal (z-score)” value [1] was -0.586, the “glycan array binding signal (z-score)” value [2] was 0.411 and the “glycan array binding signal (z-score)” value [3] was -0.506. For the same binder, the “glycan array binding signal (z-score)” value [4] was -0.319, the “glycan array binding signal (z-score)” value [5] was 0.12 and the “glycan array binding signal (z-score)” value [6] was -0.274. The “glycan array binding signal (z-score)” value [7] was -0.229, the “glycan array binding signal (z-score)” value [8] was -0.361 and the “glycan array binding signal (z-score)” value [9] was -0.447. The “glycan array binding signal (z-score)” value [10] was 0.989, the “glycan array binding signal (z-score)” value [11] was 3.63 and the “glycan array binding signal (z-score)” value [12] was 0.471. The “glycan array binding signal (z-score)” value [13] was -0.285, the “glycan array binding signal (z-score)” value [14] was -0.124 and the “glycan array binding signal (z-score)” value (Fuc(a1-3)GlcNAc) was -0.243. For the same binder, the “glycan array binding signal (z-score)” value [15] was 1.41, the “glycan array binding signal (z-score)” value [16] was -0.372 and the “glycan array binding signal (z-score)” value [17] was -0.195. For the same binder, the “glycan array binding signal (z-score)” value [18] was -0.535, the “glycan array binding signal (z-score)” value [19] was -0.512 and the “glycan array binding signal (z-score)” value [20] was 0.091. The “glycan array binding signal (z-score)” value [21] was -0.587, the “glycan array binding signal (z-score)” value [22] was 1.35 and the “glycan array binding signal (z-score)” value [23] was 0.863. For the same binder, the “glycan array binding signal (z-score)” value [24] was 0.112, the “glycan array binding signal (z-score)” value [25] was 4.89 and the “glycan array binding signal (z-score)” value [26] was -0.449. The “glycan array binding signal (z-score)” value [27] was 3.33, the “glycan array binding signal (z-score)” value (Fuc(a1-4)GlcNAc) was -0.004 and the “glycan array binding signal (z-score)” value (Fuc(b1-3)GlcNAc) was -0.218.
